From the supplement of paper PMC12067093, “Discovery and optimisation of a covalent ligand for TRIM25 and its application to targeted protein ubiquitination” (Chemical Science, 2025)
About 21,000 targets were measured; listed, in parts, are those with the largest changes and a random draw of the rest.

Compound: Cc1cc(ccc1-c1ccccc1)C(=O)N1CCCN(CC1)C(=O)CCl [compound 10]
Experiment: probe-labelled cysteine peptide fold change vs DMSO (competition) (log2 fold change); higher = less target engagement (more negative = stronger competition)
Conditions: THP-1, incubation time: 4 h
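Further: competitive profiling in live THP-1 cells: cysteine peptides tagged with an iodoacetamide desthiobiotin (IA-DTB) probe, intensity after compound treatment relative to DMSO-treated cells.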

Chain of UniProt Q15021 (Q15021 whole entry, looked up): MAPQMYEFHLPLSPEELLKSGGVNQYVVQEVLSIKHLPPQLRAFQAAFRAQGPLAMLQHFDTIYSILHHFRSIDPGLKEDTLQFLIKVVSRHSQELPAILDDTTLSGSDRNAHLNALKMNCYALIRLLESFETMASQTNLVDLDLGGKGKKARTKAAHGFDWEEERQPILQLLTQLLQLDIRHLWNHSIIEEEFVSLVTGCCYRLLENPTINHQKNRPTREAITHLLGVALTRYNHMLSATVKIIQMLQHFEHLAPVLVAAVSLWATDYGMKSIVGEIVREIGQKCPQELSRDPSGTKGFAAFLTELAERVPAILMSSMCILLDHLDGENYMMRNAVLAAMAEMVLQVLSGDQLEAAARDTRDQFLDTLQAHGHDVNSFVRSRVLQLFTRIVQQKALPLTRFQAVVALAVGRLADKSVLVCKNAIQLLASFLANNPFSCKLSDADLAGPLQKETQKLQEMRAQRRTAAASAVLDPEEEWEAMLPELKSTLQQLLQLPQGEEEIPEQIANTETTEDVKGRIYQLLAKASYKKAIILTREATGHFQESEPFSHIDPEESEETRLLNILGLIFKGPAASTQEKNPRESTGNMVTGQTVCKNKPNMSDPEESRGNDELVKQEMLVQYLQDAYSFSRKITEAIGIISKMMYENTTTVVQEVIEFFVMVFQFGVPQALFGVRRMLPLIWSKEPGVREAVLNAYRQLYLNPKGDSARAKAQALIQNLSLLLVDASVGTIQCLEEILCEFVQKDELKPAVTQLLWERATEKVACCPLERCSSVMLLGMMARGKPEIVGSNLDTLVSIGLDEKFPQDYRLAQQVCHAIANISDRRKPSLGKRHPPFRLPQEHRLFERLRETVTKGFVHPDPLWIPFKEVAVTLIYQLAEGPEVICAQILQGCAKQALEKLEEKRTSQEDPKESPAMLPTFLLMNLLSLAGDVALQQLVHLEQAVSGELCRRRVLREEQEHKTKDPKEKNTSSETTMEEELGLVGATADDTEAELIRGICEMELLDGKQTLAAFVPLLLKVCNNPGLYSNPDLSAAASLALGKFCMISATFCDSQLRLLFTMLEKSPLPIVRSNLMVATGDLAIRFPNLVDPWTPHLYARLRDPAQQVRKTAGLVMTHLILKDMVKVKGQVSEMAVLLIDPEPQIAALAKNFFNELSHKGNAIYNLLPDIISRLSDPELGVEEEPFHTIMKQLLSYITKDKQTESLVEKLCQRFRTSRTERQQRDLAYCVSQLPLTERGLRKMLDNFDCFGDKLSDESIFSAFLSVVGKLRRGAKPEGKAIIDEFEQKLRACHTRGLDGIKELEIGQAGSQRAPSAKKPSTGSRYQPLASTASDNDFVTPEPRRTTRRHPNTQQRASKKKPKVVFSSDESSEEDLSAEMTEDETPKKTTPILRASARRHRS
Chain of UniProt Q15003 (Q15003 whole entry, looked up): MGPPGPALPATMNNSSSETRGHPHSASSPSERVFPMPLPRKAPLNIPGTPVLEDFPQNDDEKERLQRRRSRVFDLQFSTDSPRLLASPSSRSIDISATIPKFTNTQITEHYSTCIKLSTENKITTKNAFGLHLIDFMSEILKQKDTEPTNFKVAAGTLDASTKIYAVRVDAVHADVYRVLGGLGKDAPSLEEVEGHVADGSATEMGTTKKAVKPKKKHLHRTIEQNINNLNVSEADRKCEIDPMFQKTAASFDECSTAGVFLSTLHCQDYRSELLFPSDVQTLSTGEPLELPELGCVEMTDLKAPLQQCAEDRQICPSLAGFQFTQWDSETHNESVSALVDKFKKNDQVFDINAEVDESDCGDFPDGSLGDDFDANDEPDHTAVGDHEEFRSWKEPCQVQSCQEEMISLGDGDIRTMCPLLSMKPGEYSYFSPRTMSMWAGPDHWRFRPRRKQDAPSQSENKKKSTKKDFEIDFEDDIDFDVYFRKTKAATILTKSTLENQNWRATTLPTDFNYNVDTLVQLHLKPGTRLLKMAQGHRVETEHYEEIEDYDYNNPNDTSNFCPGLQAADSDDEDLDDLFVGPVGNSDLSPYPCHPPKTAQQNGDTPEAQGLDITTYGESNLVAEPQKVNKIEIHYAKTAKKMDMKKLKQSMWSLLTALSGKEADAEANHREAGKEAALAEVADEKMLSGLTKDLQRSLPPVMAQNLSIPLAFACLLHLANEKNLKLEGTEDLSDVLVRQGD
Chain of UniProt Q9UNF0 (Q9UNF0 whole entry, looked up): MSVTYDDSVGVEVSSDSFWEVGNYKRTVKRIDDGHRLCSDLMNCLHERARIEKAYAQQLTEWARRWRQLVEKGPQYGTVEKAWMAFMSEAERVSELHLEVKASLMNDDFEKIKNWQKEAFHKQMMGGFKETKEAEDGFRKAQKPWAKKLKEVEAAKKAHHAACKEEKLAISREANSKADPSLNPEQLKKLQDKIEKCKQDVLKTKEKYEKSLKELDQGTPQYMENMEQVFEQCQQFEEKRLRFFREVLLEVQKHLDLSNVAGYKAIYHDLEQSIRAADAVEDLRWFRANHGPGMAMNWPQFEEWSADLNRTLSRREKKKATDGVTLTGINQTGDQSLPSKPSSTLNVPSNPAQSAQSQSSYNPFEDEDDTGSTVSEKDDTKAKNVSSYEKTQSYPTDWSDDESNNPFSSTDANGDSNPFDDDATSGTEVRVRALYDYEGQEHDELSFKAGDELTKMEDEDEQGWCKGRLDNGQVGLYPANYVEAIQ
Chain of UniProt P17568 (P17568 whole entry, looked up): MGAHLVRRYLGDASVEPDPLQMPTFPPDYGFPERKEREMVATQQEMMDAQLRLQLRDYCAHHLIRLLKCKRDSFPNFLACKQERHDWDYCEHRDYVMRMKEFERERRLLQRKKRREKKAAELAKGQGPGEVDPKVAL
Chain of UniProt Q9BTX1 (Q9BTX1 whole entry): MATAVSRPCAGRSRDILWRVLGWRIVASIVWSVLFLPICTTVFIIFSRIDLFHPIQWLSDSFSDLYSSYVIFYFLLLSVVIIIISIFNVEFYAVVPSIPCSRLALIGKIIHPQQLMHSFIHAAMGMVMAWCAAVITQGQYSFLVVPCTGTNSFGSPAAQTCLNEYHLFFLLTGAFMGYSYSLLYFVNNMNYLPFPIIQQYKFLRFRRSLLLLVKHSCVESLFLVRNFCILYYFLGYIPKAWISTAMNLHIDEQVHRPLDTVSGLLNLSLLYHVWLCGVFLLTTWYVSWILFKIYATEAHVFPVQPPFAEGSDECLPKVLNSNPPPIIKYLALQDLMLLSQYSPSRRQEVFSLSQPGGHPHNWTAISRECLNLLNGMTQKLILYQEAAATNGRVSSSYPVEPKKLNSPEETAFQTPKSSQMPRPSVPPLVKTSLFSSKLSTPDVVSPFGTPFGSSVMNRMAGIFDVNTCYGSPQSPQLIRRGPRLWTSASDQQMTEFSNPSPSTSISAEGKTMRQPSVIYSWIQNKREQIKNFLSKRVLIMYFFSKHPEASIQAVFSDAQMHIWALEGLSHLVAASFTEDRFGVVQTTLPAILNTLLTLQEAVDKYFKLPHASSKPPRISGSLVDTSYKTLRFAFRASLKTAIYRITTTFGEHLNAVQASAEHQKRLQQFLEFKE
Chain of UniProt O75914 (O75914 whole entry, looked up): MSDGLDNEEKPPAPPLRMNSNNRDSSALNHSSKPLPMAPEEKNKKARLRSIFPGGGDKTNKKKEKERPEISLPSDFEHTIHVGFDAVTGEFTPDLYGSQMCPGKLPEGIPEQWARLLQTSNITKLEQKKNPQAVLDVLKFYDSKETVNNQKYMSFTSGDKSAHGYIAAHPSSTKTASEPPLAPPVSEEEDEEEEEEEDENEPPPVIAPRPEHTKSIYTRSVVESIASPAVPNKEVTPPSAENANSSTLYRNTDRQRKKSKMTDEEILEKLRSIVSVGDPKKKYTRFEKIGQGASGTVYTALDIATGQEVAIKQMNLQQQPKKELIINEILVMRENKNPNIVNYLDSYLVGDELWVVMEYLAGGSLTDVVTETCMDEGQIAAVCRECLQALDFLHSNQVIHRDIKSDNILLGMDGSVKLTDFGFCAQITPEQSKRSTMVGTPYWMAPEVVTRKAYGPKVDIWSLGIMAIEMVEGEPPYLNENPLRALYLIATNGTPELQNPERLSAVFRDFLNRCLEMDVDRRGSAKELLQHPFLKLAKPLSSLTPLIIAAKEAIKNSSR
Chain of UniProt Q53GL7 (Q53GL7 whole entry, looked up): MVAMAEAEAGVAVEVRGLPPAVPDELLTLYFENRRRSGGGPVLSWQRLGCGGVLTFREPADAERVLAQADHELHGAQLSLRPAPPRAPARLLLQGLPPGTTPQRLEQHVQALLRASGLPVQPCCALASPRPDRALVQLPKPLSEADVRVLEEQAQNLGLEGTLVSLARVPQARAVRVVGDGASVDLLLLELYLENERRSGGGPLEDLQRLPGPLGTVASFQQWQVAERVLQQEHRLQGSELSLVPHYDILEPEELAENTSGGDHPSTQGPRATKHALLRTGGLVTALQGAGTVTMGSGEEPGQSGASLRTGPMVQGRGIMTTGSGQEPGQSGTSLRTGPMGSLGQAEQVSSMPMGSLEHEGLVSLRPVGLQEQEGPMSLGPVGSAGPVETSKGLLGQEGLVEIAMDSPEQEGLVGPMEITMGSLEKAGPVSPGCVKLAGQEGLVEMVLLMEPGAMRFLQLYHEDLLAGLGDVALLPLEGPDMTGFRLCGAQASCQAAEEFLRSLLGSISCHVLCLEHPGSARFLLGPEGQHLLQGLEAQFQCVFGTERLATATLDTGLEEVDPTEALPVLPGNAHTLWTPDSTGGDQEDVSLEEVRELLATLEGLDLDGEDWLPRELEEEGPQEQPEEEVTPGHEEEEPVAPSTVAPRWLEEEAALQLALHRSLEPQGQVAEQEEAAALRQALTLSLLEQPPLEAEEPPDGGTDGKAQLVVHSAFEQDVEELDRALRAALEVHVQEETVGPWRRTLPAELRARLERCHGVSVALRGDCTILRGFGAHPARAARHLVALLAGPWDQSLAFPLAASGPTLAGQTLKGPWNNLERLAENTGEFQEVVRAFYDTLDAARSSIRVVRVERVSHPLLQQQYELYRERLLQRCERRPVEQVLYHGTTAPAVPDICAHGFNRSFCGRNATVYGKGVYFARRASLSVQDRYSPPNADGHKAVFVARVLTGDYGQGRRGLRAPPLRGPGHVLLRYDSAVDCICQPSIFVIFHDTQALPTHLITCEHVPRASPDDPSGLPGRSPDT

Target	probe-labelled cysteine peptide fold change (10 µM)	probe-labelled cysteine peptide fold change (50 µM)
P4HB_P07237_312_KEECPAVR (UniProt P07237)	-0.0418	0.0208
NCAPH_Q15003_418_TMCPLLSMK (UniProt Q15003)	-0.465	-1.14
PAK3_O75914_424_LTDFGFCAQITPEQSK (UniProt O75914)	0.0891	-0.18
PARP16_Q8N5Y8_169_LENFHSIIHNGLHCHLNK (UniProt Q8N5Y8)	-0.0878	-0.518
NDUFB7_P17568_90_HDWDYCEHR (UniProt P17568)	-0.0995	0.0691
NUP160_Q12769_369_RGQFCIFQLVSTESNR (UniProt Q12769)	0.142	0.732
P4HB_P07237_397_NVFVEFYAPWCGHCK (UniProt P07237)	-0.446	-1.32
NDC1_Q9BTX1_9_ATAVSRPCAGR (UniProt Q9BTX1)	-0.485	-1.69
NUF2_Q9BZD4_111_VNDFETADILCPK (UniProt Q9BZD4)	-0.148	-0.234
NECTIN1_Q15223_172_VLVATCTSANGKPPSVVSWETR (UniProt Q15223)	-0.213	-2.04
NCAPD2_Q15021_767_VACCPLER (UniProt Q15021)	-0.647	-6.74
MYO5B_Q9ULV0_514_LGILDLLDEECK<|>MYO5A_Q9Y4I1_513_LGILDLLDEECK (UniProt Q9Y4I1+Q9ULV0)	-0.00572	0.227
PARP10_Q53GL7_983_YDSAVDCICQPSIFVIFHDTQALPTHLITCEHVPR (UniProt Q53GL7)	-0.38	-1.65
PACSIN2_Q9UNF0_38+44_LCSDLMNCLHER (UniProt Q9UNF0)	-0.167	-0.262
